# In PubChem BioAssay AID1347071 (National Center for Advancing Translational Sciences (NCATS), 2019):
# About 260 (0.063%) of roughly 410,000 compounds were called active. The inconclusive results got no clear call from the source; some entries with a clear call stand among them for comparison. Calls follow the shape of the dose curve; as a rule, active = well fitted activation curve with a large enough effect; inconclusive = small, poorly fitted or top-dose-only effect; inactive = no such curve, though single readings can be large or run the other way. Potencies of inconclusive entries are left out as doubtful fits.
# Test: qHTS for compounds that reverse cellular toxicity of Amyloid beta (A-beta) peptide in yeast: Primary Screen; also: nearly all actives have a fitted effect of over 55% in size
# Settings: yeast expressing A-beta42, growth rescue, OD600, 48 h; growth rescue: at 46.1 µM (top of the series), 0% DMSO, 100% iron-clioquinol control
# Text: The A-beta peptide is produced by the processing of the amyloid precursor protein (APP) by two proteases, beta and gamma secretases. […] A-beta42 is regarded as the most amyloidogenic form due to its hydrophobicity; however, precisely how A-beta42 induces neurotoxicity is unclear. To understand further this biology and its potential therapeutic implications for human neurodegenerative disease, a quantitative high-throughput screen for compounds that reverse the cellular toxicity of the A-beta peptide was developed. A yeast based screen was used because it recapitulates the salient feature of protein mis-folding disorder accurately. This cell-based phenotypic screen provides a significant, unbiased advantage by letting the compounds and models inform us which proteins or pathways are most relevant. The ideal chemical candidates would therefore have activity in both our primary yeast and secondary neuronal toxicity assays, as well as in mouse models. They will be valuable tools for dissecting diverse protein homeostasis pathologies and could potentially become the focus for future pre-clinical development. For this luminescence assay, inhibition of A-beta rescues the toxic effect in the yeast cell, resulting in increase of signals and the desired phenotype of "Activator". This screen is run against the Molecular Libraries Small Molecule Repository (MLSMR) and the NCGC Sytravon Library Collection.
# NIH Chemical Genomics Center [NCGC]
# NIH Molecular Libraries Probe Centers Network [MLPCN]
# Assay Submitter (PI): Susan Lindquist, Whitehead Institute, Massachusetts Institute of Technology
# [1] Vassar R,et al (1999). Beta-secretase cleavage of Alzheimer's amyloid precursor protein by the transmembrane aspartic protease BACE. Science. 286: 735-741.
# [2] Yan R, et al (1999). Membrane-anchored aspartyl protease with Alzheimer's disease beta-secretase activity. Nature. 402: 533-536.
# Two and a half microliter / well of yeast growth medium were dispensed in a 1536 assay plate. Compounds were pinned using the Kalypsys robotic system followed by addition of 2.5 uL / well yeast solution. The assay plates were incubated at 30 C. After 48 hr, the absorbance signal at 600 nm was obtained using the PerkinElmer ViewLux plate reader to assess yeast growth. The data was normalized to the positive control of an equimolar mixture of ferric chloride (FeCl3) and clioquinol and to the negative control DMSO.
# Potency is read from the fitted curve at half-maximal effect; tags tell the direction and shape of the fitted curve.
Compound,Potency,growth rescue
O=C1c2ccccc2C(Nc2ccc3c(c2)OCCO3)N1Cc1ccc2c(c1)OCO2 (configuration not stated),"inconclusive [activator, partial curve, poor fit]",–
Fc1ccccc1Nc1ncnc2c1nnn2Cc1ccccc1,"inconclusive [activator, partial curve, poor fit]",–
O=C1OC(c2ccccc2)(c2cc(Br)ccc2O)c2ccccc21 (configuration not stated),"inconclusive [activator, partial curve]",–
C/C(Cn1nnc([N+](=O)[O-])n1)=N\NC(=O)c1ccc(O)cc1O,"inconclusive [activator, single point]",–
Cc1ccccc1NC(=S)N1CCN(c2ccccc2Cl)CC1,"inconclusive [activator, single point]",–
COc1cc2c(=O)c(C(=O)c3ccc(C)c(C)c3)cn(Cc3ccccc3F)c2cc1OC,"inconclusive [activator, single point]",–
COc1ccc(NC(=O)C2CCN(C(=O)[C@@H]3Cc4ccccc4CN3C(=O)OC(C)(C)C)CC2)cc1,"inconclusive [activator, single point]",–
Cc1nc(-c2nc(-c3c(C(=O)NN)noc3C)cs2)cs1,–,inactive: -7.89%
CN1C(=O)[C@H]2[C@@H](c3ccc(C(F)(F)F)cc3)N[C@]3(CCCN(Cc4ccc(C(F)(F)F)cc4)C3=O)[C@H]2C1=O,"inconclusive [activator, partial curve, poor fit]",–
CC(C)Cc1ccc(S(=O)(=O)N2CCC(c3ccncc3)CC2)cc1,–,inactive: -30.7%
CCNc1nc(Sc2ccc(C)cc2)cc(C(F)(F)F)n1,"inconclusive [activator, partial curve, poor fit]",–
CC(C)CCOP(=O)(c1ccc(N(C)C)cc1)C(O)c1ccccc1F (configuration not stated),"inconclusive [activator, partial curve, poor fit]",–
Cc1ccccc1NC(=S)NCc1ccccc1,–,inactive: 10.3%
Cc1ccc(CNc2nc(-c3ccco3)nn2S(C)(=O)=O)cc1,"inconclusive [activator, full curve, poor fit]",–
O=C(Nc1ccccc1Cl)c1ccc(-n2cccn2)c([N+](=O)[O-])c1,"inconclusive [activator, single point]",–
COc1ccc(Nc2nc(N)nc(CSC(=S)N3CCCCC3C)n2)cc1 (configuration not stated),"inconclusive [activator, single point]",–
O=S(=O)(NCCc1csc2nc(-c3ccc(F)cc3)nn12)c1ccc(Br)cc1,–,inactive: -3.09%
O=C(NC(=S)Nc1ccc(Cl)cn1)c1cccs1,"inconclusive [activator, partial curve, poor fit]",–
CCSc1nc2ccccc2n1C(=O)/C=C\c1ccc(OC)c(OC)c1,–,inactive: 8.2%
CCCOc1cccc(-c2cc(C(=O)N/N=C/c3ccccn3)c3ccccc3n2)c1,"inconclusive [activator, single point]",–
Cc1sc(-n2cccc2)c(C(=O)O)c1C,"inconclusive [activator, partial curve, poor fit]",–

Compound,Potency,growth rescue
CCc1cc(C)cc(OCCNC(=O)c2cncc(Br)c2)c1,"inconclusive [activator, partial curve]",–
COc1ccccc1-n1cc(-c2ccc(Br)cc2)[nH]c1=S,"inconclusive [activator, partial curve, poor fit]",–
COc1ccc(C(=S)N2CCCC2)cc1C,"inconclusive [activator, partial curve, poor fit]",–
O=C(Cn1c(-c2ccccc2)noc1=O)Nc1ccc(S(=O)(=O)N2CCOCC2)cc1,"inconclusive [activator, single point]",–
S=c1[nH]c2ccccc2n1CCOc1ccccc1,active: 11.2 µM,–
C=Cc1ccc(Cn2c(C(=O)O)c(CNCc3cccs3)c3ccc(C)cc32)cc1,–,inactive: -8.81%
CCCCN1CC[C@H]2C=CC[C@@H](C(=O)N3CCN(c4ccccc4)CC3)[C@H]2C1=O,–,inconclusive: -22.4% [activator]
O=C(O)CN1C(=O)/C(=C\c2cccc(OCc3ccccc3F)c2)SC1=S,active: 8.91 µM,–
CCOC(=O)c1ccc2nc(NC(=O)C(C)C)sc2c1,"inconclusive [activator, single point]",–
CC1Cc2ccccc2N1C(=O)COC(=O)Cn1nnc(-c2ccccc2)n1 (configuration not stated),"inconclusive [activator, single point]",–
O=C1CSC(c2ccc(Cl)cc2)N1c1cccnc1 (configuration not stated),–,inactive: -60.7%
Cc1ccc(NS(=O)(=O)Cc2ccccc2)cc1Cl,"inconclusive [activator, full curve]",–
O=C(Nc1nnc(-c2ccccc2)o1)c1cc(Cl)sc1Cl,"inconclusive [activator, single point]",–
CCCc1c(C)nn(C(=O)/C(C#N)=N/Nc2ccccc2[N+](=O)[O-])c1C,"inconclusive [activator, full curve, poor fit]",–
S=C(Nc1ccc(Cl)cc1)NC1CCCCC1,"inconclusive [activator, single point]",–
Cc1cccc(OCc2n[nH]c(=S)n2-c2ccccc2)c1,"inconclusive [activator, single point]",–
Cc1nn(Cc2c(Cl)cccc2Cl)c(C)c1C(=O)NCc1ccc(C)n1C,"inconclusive [activator, partial curve]",–
CCN(CC)CCN(C)Cc1nc(C(c2ccccc2)c2ccccc2)no1,"inconclusive [activator, partial curve, poor fit]",–
Cn1c(CC(=O)Nc2ccc(Cl)c(Cl)c2)nnc1SCC(=O)N1CCN(c2ccccc2)CC1,–,inactive: 3.66%
COc1cc(C(O)c2nc(-c3cnn(C)c3)cs2)ccc1F (configuration not stated),–,inconclusive: -53.5% [activator]
CCCOc1ccc(N2CC(C(=O)Nc3ncccc3C)CC2=O)cc1 (configuration not stated),"inconclusive [activator, partial curve]",–
